In PubChem BioAssay (NCI):
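96-well plates; 48 h exposure; 5 concentrations. Endpoints by linear interpolation between flanking doses. Not reached: highest tested concentration assigned. GI50: concentration for 50% inhibition of growth. Definition used: TGI = concentration required for complete inhibition of growth.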

Tested on: NCI-H322M lung
Experiment: inhibition of tumour cell growth, NCI panel, 48 h

Compound	TGI	GI50
C[C@H]1ON2CCC[C@@H]2[C@@H]1C(=O)N1C2CC3CCC2(CS1(=O)=O)C3(C)C (stereo not given in full)	> 100 µM	–
Brc1ccc(C2(N3CCCCC3)CCCCC2)s1	> 100 µM	–
CC1(C)O[C@@H]([C@@H](O)[C@H](O)C2SCCCS2)[C@@H](CO)O1	> 100 µM	–
C#CCSc1nnnn1-c1ccc(Br)c(C)c1	> 100 µM	79.5 µM
O=C(c1no[n+]([O-])c1C(=O)c1csc2ccccc12)c1csc2ccccc12	31.2 µM	–
O=C(O)Cc1ccccc1	> 2000 µM	> 1000 µM
C[N+](C)(C)C(Cc1c[nH]c(=S)[nH]1)C(=O)O (stereo not given)	> 100 µM	–
CC[n+]1c(/C=C/c2ccc(N(CCCl)CCCl)cc2)ccc2cc(Br)ccc21	–	623 µM
COc1ccc(Nc2nc3c(N)cc(C(F)(F)F)cc3nc2-c2ccccc2)cc1	> 100 µM	–
CSc1nc2ccccc2c(=O)n1-c1cccc(C)c1	> 100 µM	–
Cc1cc(N(CCC#N)CCC#N)ccc1N=Nc1ccc([N+](=O)[O-])cc1	> 100 µM	–
COc1cccc2c(=O)c3c(O)c4cc(N(C)C)ccc4c(OC(C)=O)c3oc12	> 100 µM	–
COC(=O)C1(Cc2ccccc2C)Cc2ccc(C)cc2C1=O (stereo not given)	> 100 µM	–
COc1ccc(Br)c(CCCCC(=O)O)c1	> 100 µM	–
CCN1N=CSC12C(=O)N(c1ccccc1)C(=O)N2c1ccccc1 (stereo not given)	> 100 µM	–
CCOP(=O)(OCC)OC1CC(n2cnc3c(N(CC)CC)ncnc32)OC1CO[Si](C)(C)C(C)(C)C (stereo not given)	32.4 µM	–
Cc1ccc2c(c1)/C(=N\N=C/c1cn(C(C)C)c3ccccc13)C(=O)N2	> 100 µM	4.82 µM
COc1cc(-c2cn(-c3ccc(Cl)cc3)c(=O)n2-c2ccccc2)cc(OC)c1OC	> 100 µM	> 60.9 µM
CC[C@]12C=CCN3CC[C@]4(C(=C(C(=O)OC)C1)Nc1ccccc14)[C@@H]32	24.6 µM	10.9 µM
N#Cc1c(-c2ccccc2)cc(Nc2ccc(F)cc2)n2c1nc1ccccc12	10.1 µM	–
CC(C)Cn1cnnc1NS(=O)(=O)c1cc(C(=O)NN)c(Cl)cc1S	> 10 µM	–
CCOC(=O)C(NC(=O)Nc1ccccc1F)(OC)C(F)(F)F (stereo not given)	> 100 µM	–
CCOC(=O)C1=C(O)CSC1=Nc1ccc(N=C2SCC(O)=C2C(=O)OCC)cc1	44 µM	–
CCOc1ccc(NC(=O)/C(=C/c2ccccc2)C(C)=O)cc1	27.8 µM	–
CC1C2CC(CC2=O)C1(C)C (stereo not given)	> 100 µM	–

Compound	TGI	GI50
CC(C)(C)OC(=O)N1CCC[C@H]1CSC[C@@H]1CCCN1C(=O)OC(C)(C)C	> 100 µM	–
COc1ccc2c(c1)OCC1Cc3cccc(OC)c3OC21 (stereo not given)	> 100 µM	–
COc1cc(/C=C2\N=C(c3ccccc3)N(/N=C/c3cc4cc(C)ccc4nc3Cl)C2=O)ccc1O	> 100 µM	–
CC1(C)CCC(CN2CCN(c3ccc(C(=O)NS(=O)(=O)c4ccc(NCC5CCOCC5)c([N+](=O)[O-])c4)c(Oc4cnc5[nH]ccc5c4)c3)CC2)=C(c2ccc(Cl)cc2)C1	9.77 µM	2.92 µM
CCOC(=O)/C(C#N)=N\Nc1ccc(-n2c(C)nc3ccc(Br)cc3c2=O)cc1	> 100 µM	–
COc1ccccc1NS(=O)(=O)c1cc(C(C)(C)C)ccc1OCCOc1ccc(C(C)(C)C)cc1S(=O)(=O)Nc1ccccc1OC	> 100 µM	–
COc1cc2c(c(Br)c1N)-c1cc(Br)c(N)cc1C2=O	> 100 µM	> 100 µM
O=C(CCl)Nc1ccc(-c2nc3ccccc3s2)cc1	13.7 µM	–
Cc1cc2c(cc1-c1cc3c(cc1C)C(C(C)C)=C(O)C(=O)/C3=C\Nc1cccc3c(N)cccc13)/C(=C/Nc1cccc3c(N)cccc13)C(=O)C(O)=C2C(C)C	> 100 µM	–
COc1cccc(C2C3=C(COC3=O)N(CCO)c3cc4c(cc32)CCC4)c1 (stereo not given)	> 32.3 µM	0.404 µM
Nc1nc(Cl)c(N)c(NCC2(CO)CC(O)C2)n1 (stereo not given)	> 100 µM	–
C[C@@H](Oc1cc(-n2cnc3ccc(OCC4CCN(C)CC4)cc32)sc1C(N)=O)c1ccccc1C(F)(F)F	4.7 µM	0.664 µM
Cc1ccc(NC(=O)CCC(=O)C2CC(=O)CCC2=O)cc1C (stereo not given)	> 100 µM	–
COc1ccc(C(=O)Nc2ccccc2)cc1[N+](=O)[O-]	> 100 µM	–
c1ccc(CNc2nc(Nc3ccc(-c4nc5ccccc5[nH]4)cc3)c3cn[nH]c3n2)cc1	11.4 µM	2.87 µM
COc1ccc(N=C/C=C/C(=C/COC(C)=O)OC(C)=O)cc1	> 100 µM	–
CC/C(=C(/CC)c1ccc(OP(=O)([O-])[O-])cc1)c1ccc(OP(=O)([O-])[O-])cc1.N.N.N.N.[Pt+4].[Pt+4]	54.6 µM	12.5 µM
COC1(CCO)CC=CCC1(CCO)OC (stereo not given)	> 100 µM	–
CC1(C)CC(C2CC(C)(C)CC(C)(C)[C@H]2O)[C@@H](O)C(C)(C)C1 (stereo not given in full)	> 100 µM	–
COc1cccc(/C=N/[N-]C(N)=O)c1[O-].[OH3+].[Zn+2]	> 100 µM	–
CC(=O)N(CCc1ccccc1)C(C)(C#N)c1ccccc1 (stereo not given)	> 100 µM	–
COC(=O)/C=C(\S/C(=C(/c1ccccc1)n1cc(C(=O)OC)c(C(=O)OC)n1)c1ccccc1)C(=O)OC	35.2 µM	–
c1ccc2c(c1)SCCCSCCCS2	> 100 µM	–
O=C1C2=Cc3ccccc3CCN2c2ccc([N+](=O)[O-])cc21	> 100 µM	–
